The whole screen tested about 310,000 compounds, of which about 14,000 (4.5%) showed an effect of 50% or more. Effects have a minus sign here. The list shows a part of the results.
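Note: peak tail current of the secondary pulse compared with the same well before compound.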

The target of this assay is human ether-à-go-go-related gene (hERG) potassium channel (human, UniProt Q12809). The assay is described as follows: primary screen, population patch clamp on CHO cells stably expressing hERG.
Chain of human ether-à-go-go-related gene (hERG) potassium channel (Q12809 whole entry, looked up): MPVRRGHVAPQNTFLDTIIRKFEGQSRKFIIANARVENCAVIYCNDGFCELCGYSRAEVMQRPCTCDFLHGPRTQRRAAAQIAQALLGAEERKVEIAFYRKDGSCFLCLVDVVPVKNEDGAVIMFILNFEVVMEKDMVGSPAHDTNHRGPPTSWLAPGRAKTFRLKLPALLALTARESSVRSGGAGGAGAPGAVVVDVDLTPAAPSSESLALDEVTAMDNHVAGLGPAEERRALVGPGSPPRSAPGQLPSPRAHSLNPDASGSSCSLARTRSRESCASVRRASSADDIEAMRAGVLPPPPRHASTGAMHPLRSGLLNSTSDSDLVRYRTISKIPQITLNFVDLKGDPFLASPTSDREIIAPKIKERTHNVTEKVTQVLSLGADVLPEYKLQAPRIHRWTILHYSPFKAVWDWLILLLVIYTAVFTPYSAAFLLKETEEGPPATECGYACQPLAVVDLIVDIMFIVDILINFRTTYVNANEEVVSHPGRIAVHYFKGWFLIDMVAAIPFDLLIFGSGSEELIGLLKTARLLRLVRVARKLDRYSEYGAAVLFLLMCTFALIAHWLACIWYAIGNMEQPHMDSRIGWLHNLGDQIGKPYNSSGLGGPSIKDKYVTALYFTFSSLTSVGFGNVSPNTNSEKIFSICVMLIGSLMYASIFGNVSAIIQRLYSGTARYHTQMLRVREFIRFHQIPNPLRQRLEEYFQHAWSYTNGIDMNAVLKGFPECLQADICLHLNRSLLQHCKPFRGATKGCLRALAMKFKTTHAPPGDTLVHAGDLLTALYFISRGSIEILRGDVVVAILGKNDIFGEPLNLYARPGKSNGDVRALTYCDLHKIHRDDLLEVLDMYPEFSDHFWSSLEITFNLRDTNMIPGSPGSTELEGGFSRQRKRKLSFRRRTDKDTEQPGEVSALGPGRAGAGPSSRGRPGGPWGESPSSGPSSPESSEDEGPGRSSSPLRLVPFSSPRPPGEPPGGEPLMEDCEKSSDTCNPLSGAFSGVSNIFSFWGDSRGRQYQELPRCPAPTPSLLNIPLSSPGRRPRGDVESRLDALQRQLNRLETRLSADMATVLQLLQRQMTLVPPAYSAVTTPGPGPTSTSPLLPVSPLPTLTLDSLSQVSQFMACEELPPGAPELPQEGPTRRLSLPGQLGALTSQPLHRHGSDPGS
`COc1ccc(S(=O)(=O)N2CCCC(C(=O)Nc3ccc(NC(=O)c4ccccn4)cc3)C2)cc1` (stereo not shown): the “hERG current change (%, negative = inhibition) at 10uM” value was determined as 4.17%.

Take `CC(C)Cc1cc(CNC(=O)C2CCC(=O)N(CCc3cccc(F)c3)C2)on1` (stereo not shown): the “hERG current change (%, negative = inhibition) at 10uM” value was -43.4%.

With `Cc1ccc(NC(=S)NNC(=O)Nc2ccccc2)cc1`, the “hERG current change (%, negative = inhibition) at 10uM” value was found to be 39%.

Take `COc1ccc(CCNC(=O)c2cc3c(=O)n4ccccc4nc3n(CCCN3CCOCC3)c2=N)cc1`: the “hERG current change (%, negative = inhibition) at 10uM” value is -79%.

`COc1cc(C)c(NC(=S)Nc2cccc(Cl)c2)cc1OC`: the “hERG current change (%, negative = inhibition) at 10uM” value turned out to be 6.72%.

In the case of `CN(C)S(=O)(=O)N1CCN(CC(O)COc2ccc3cc(Br)ccc3c2)CC1` (stereo not shown), the “hERG current change (%, negative = inhibition) at 10uM” value was -25.6%.

Turning to `COc1ccc(C)cc1NC(=O)C(Sc1nnc(-c2ccncc2)n1-c1ccc(Cl)cc1)c1ccccc1` (stereo not shown), the “hERG current change (%, negative = inhibition) at 10uM” value came to 17.3%.

`COc1ccc(OCC(=O)Nc2ccc(C(=O)Nc3ccccc3C(=O)O)cc2)cc1`: the “hERG current change (%, negative = inhibition) at 10uM” value is recorded as 23.2%.

In the case of `COc1ccc(NC(=O)CCCC(=O)NCCc2ccc(OC)c(OC)c2)cc1`, the “hERG current change (%, negative = inhibition) at 10uM” value is 7.19%.

Regarding `COc1cccc(NC(=O)C(OC(=O)c2ccccc2NS(=O)(=O)c2cccs2)c2ccccc2)c1` (stereo not shown), the “hERG current change (%, negative = inhibition) at 10uM” value came to 5.84%.

On to `CCc1nnc(NC(=O)CSc2nnc(Cc3cccn3C)n2C)s1`, for which the “hERG current change (%, negative = inhibition) at 10uM” value is reported as 10.2%.

Regarding `CCOC(=O)N1CCC(NC(=O)CS(=O)Cc2nc(-c3ccc(OC)c(OC)c3)oc2C)CC1` (stereo not shown), the “hERG current change (%, negative = inhibition) at 10uM” value stood at 15.2%.

Consider `O=S(=O)([O-])Oc1c[nH]c2ccccc12.[K+]`, for which the “hERG current change (%, negative = inhibition) at 10uM” value amounted to 17.8%.

In the case of `N#Cc1ccc(OCC(=O)NCC2COc3ccccc3O2)cc1` (stereo not shown), the “hERG current change (%, negative = inhibition) at 10uM” value was -16.4%.

In the case of `CC(=O)Cc1nsc(Nc2cccc(C)c2)n1`, the “hERG current change (%, negative = inhibition) at 10uM” value is given as 3.45%.

As for `O=C(Nc1cccc2ccccc12)c1nn(C23CC4CC(CC(C4)C2)C3)cc1[N+](=O)[O-]`, the “hERG current change (%, negative = inhibition) at 10uM” value was -2.59%.

Take `CCCCn1c(SCC(=O)Nc2cc(C)on2)nc2ccsc2c1=O`: the “hERG current change (%, negative = inhibition) at 10uM” value is recorded as 8.7%.

Consider `CCOC(=O)c1nn(-c2ccccc2Cl)c(=O)cc1OCC(=O)Nc1cccc(OC)c1`, for which the “hERG current change (%, negative = inhibition) at 10uM” value is 18.9%.

For `Cc1ccc(F)c(NC(=O)CCOc2ccccc2C)c1`, the “hERG current change (%, negative = inhibition) at 10uM” value is reported as -4.52%.

`Cc1cc(=O)oc2cc(NC(=O)c3cc(F)ccc3F)ccc12`: the “hERG current change (%, negative = inhibition) at 10uM” value was determined as 5.23%.

As for `COC(=O)c1[nH]c2ccc(Br)cc2c1NC(=O)CN1CCCCC1CCO` (stereo not shown), the “hERG current change (%, negative = inhibition) at 10uM” value is -2.6%.

In the case of `Cc1nc2ccccc2n1CCC(=O)Nc1cccc(F)c1`, the “hERG current change (%, negative = inhibition) at 10uM” value is listed as -6.53%.

Regarding `CCn1cc(C(=O)NC(C)C23CC4CC(CC(C4)C2)C3)cn1` (stereo not shown), the “hERG current change (%, negative = inhibition) at 10uM” value is -11.5%.

On to `c1csc(-c2nnc(N3CCOCC3)c3ccccc23)c1`, for which the “hERG current change (%, negative = inhibition) at 10uM” value is -32.1%.

For the compound `CC(C)CN1CCN(Cc2cccc3c2OCO3)CC1CCO` (stereo not shown), the “hERG current change (%, negative = inhibition) at 10uM” value was -1.45%.

For `Cc1cc2ncn(S(=O)(=O)N3CCCCC3)c2cc1C`, the “hERG current change (%, negative = inhibition) at 10uM” value amounted to 5.63%.

For `CCN1CCN(c2ncc(C(=O)Nc3cc(Cl)ccc3OC)c3ccccc23)CC1`, the “hERG current change (%, negative = inhibition) at 10uM” value is reported as -61.5%.

In the case of `Cc1ccc(OCCCN2CCOCC2)c([N+](=O)[O-])c1.O=C(O)C(=O)O`, the “hERG current change (%, negative = inhibition) at 10uM” value is -12%.

On to `COC(=O)c1ccc(N2CCN(c3ccccc3)CC2)c(NC(=O)C2CC2)c1`, for which the “hERG current change (%, negative = inhibition) at 10uM” value was -35.6%.

Consider `C=CCOCCn1[nH]c2ccccc2c1=O`, for which the “hERG current change (%, negative = inhibition) at 10uM” value amounted to 4.75%.

Regarding `O=C(Cn1cc([N+](=O)[O-])cn1)N1CCc2ccccc21`, the “hERG current change (%, negative = inhibition) at 10uM” value is 0.639%.

Regarding `COc1cc(CC(=O)Nc2cccc(SC)c2)cc(OC)c1OC`, the “hERG current change (%, negative = inhibition) at 10uM” value was 24.6%.

For `Cl.Nc1nc(N2CCCCC2)nc2ccccc12`, the “hERG current change (%, negative = inhibition) at 10uM” value is -45.8%.

For `N#CC1=C(N)N2C(=C(C#N)C1c1ccc(Br)cc1)Nc1ccccc12` (stereo not shown), the “hERG current change (%, negative = inhibition) at 10uM” value worked out at 11.3%.

`O=C(CCNC(=O)OCc1ccccc1)NC1CCCCCC1`: the “hERG current change (%, negative = inhibition) at 10uM” value turned out to be 5.67%.

With `Cc1ccc(NC(=O)c2cnn(-c3ccccc3)c2NC(=O)c2ccco2)cc1`, the “hERG current change (%, negative = inhibition) at 10uM” value is listed as 2.02%.

`COc1ccc(NS(=O)(=O)c2ccc(SC)cc2)c(OC)c1`: the “hERG current change (%, negative = inhibition) at 10uM” value is -7.12%.

Turning to `Cc1cccc(N(C)S(=O)(=O)c2c(C)[nH]c(C)c2C(=O)N2CCCC2)c1`, the “hERG current change (%, negative = inhibition) at 10uM” value is 10.8%.

For the compound `COc1ccc(-n2ccc(=O)c3c2CCCC3=O)cc1`, the “hERG current change (%, negative = inhibition) at 10uM” value is given as 13.5%.

As for `CN1CCCC(OC(=O)c2ccc(C#N)cc2)C1.Cl` (stereo not shown), the “hERG current change (%, negative = inhibition) at 10uM” value came to 1.22%.

As to `C=CCn1c(SC(C)C(=O)NCCC2=CCCCC2)nc2ccccc2c1=O` (stereo not shown), the “hERG current change (%, negative = inhibition) at 10uM” value is given as -37.9%.

Take `Cc1ccc(O)c(-c2cc(C(=O)Nc3ccc(S(=O)(=O)Nc4nc(C)cc(C)n4)cc3)[nH]n2)c1`: the “hERG current change (%, negative = inhibition) at 10uM” value is recorded as -23.1%.

For the compound `O=C1c2cccc3cccc(c23)C(=O)N1CCCN1CCN(c2ccc(F)cc2)CC1`, the “hERG current change (%, negative = inhibition) at 10uM” value is on record as -69.2%.

Take `CN1CCC(N(C)CC(=O)Nc2ccc3c(c2)OC(F)(F)O3)CC1.O=C(O)C(=O)O`: the “hERG current change (%, negative = inhibition) at 10uM” value is given as -13.9%.

As for `Cc1onc(-c2ccccc2Cl)c1C(=O)NCc1ccc(F)cc1`, the “hERG current change (%, negative = inhibition) at 10uM” value turned out to be 10.6%.

For `COc1ccc(Cl)cc1Nc1nc2ccc(C)cc2n2cnnc12`, the “hERG current change (%, negative = inhibition) at 10uM” value was found to be 18.7%.

In the case of `Cc1ccc2c(CC(=O)OC(C)C(=O)NCc3ccc4c(c3)OCO4)coc2c1` (stereo not shown), the “hERG current change (%, negative = inhibition) at 10uM” value came to 9.23%.

Consider `O=C1N(Cc2cccc(Cl)c2)C[C@@H]2C[C@@H](c3ccco3)N3CCC[C@@]123`, for which the “hERG current change (%, negative = inhibition) at 10uM” value is recorded as -25.9%.

Turning to `CCOC(=O)c1ccc(-c2ccc(/C=N/NC(=O)CN(c3cccc(C)c3)S(C)(=O)=O)o2)cc1`, the “hERG current change (%, negative = inhibition) at 10uM” value came out at 2.43%.

In the case of `CNc1snc(C)c1C(=O)OCC(=O)c1ccc(OC)c(F)c1`, the “hERG current change (%, negative = inhibition) at 10uM” value was determined as 12.2%.

With `COc1ccc(-n2c(Cc3cccc([N+](=O)[O-])c3)nc3ccccc3c2=O)cc1`, the “hERG current change (%, negative = inhibition) at 10uM” value is -69.4%.

`CCOc1ccc2nc(SC3CC(=O)N(c4cccc(OC)c4)C3=O)sc2c1` (stereo not shown): the “hERG current change (%, negative = inhibition) at 10uM” value turned out to be 13.1%.

On to `Clc1ccc(OCc2nc(-c3ccncc3)no2)cc1`, for which the “hERG current change (%, negative = inhibition) at 10uM” value worked out at 4.68%.

Regarding `Cc1cc2oc(=O)cc(CN(C)Cc3ccc(OC(F)F)cc3)c2cc1Cl`, the “hERG current change (%, negative = inhibition) at 10uM” value came to 22.7%.

On to `O=C(NNc1ccc(Cl)nn1)c1ccc(Cl)cc1`, for which the “hERG current change (%, negative = inhibition) at 10uM” value was -10%.

Source of the values: paper PMC4336329 (PLoS ONE, 2015).
